Among all 270,000 compounds or so, about 620 (0.23%) were called active. This list was built around the results that the source calls inconclusive (neither active nor inactive); the mix of calls is not that of the screen. Calls come from the whole dose curve; as a rule, active = well fitted inhibition curve with a large enough effect in the polarisation, with a control signal flat (not every such curve was filed as active); inconclusive = small, poorly fitted or top-dose-only effect, or effect the other way, or a change in a side signal; inactive = no such curve, though single readings can be large or run the other way; the % refers to the polarisation. Potencies beside an inconclusive call are fits to weak or partial responses and may not hold up. “Side channel” marks fits to a control or component signal instead of the main read-out.
Molecular target: Menin (Homo sapiens) (UniProt O00255)
Experiment: qHTS Assay for Inhibitors Targeting the Menin-MLL Interaction in MLL Related Leukemias: Competition With Texas Red Labeled MLL-derived Mutant Peptide; for FP activity change, negative = inhibition: % of control where 0% means no effect
Settings: fluorescence polarization; FP activity change, negative = inhibition: at 61.6 µM (top of the series)
Potency is the fitted concentration of half-maximal effect; tags give direction and shape of the fitted curve or compound fluorescence and quenching.

UniProt O00255, sequence (O00255 whole entry, looked up): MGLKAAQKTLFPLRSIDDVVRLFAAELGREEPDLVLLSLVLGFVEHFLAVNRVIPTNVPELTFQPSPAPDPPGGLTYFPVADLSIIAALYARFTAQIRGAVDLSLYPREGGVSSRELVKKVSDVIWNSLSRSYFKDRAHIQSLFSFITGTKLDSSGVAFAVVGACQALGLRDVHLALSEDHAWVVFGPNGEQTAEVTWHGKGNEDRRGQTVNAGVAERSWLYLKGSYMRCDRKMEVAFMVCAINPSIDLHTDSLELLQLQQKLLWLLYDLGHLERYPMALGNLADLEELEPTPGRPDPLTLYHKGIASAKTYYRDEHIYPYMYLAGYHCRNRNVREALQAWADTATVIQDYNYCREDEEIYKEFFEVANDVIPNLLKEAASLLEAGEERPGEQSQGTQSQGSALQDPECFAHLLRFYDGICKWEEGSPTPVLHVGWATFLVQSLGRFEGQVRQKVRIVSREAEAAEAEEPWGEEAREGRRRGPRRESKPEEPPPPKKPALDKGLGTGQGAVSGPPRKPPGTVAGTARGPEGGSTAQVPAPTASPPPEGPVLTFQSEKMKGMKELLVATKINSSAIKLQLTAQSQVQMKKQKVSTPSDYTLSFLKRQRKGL

| Compound | Potency | FP activity change, negative = inhibition |
| --- | --- | --- |
| Brc1ccc(NCc2cccc3ccccc23)nc1 | inconclusive: 39.8 µM [inhibitor, single point] |  |
| CCc1nc(N[C@H](C(=O)O)C(C)CC)c2oc3ccccc3c2n1 (some centres undefined) | inconclusive: 20 µM [inhibitor, single point] |  |
| CCCc1nc2ccccc2c(C(=O)OCC(=O)Nc2ccc(S(=O)(=O)N3CCOCC3)cc2)c1CC | inconclusive: 8.91 µM [quencher, side channel, partial curve] |  |
| Cc1ccc(Cl)cc1N1CCN(C(c2cccnc2)c2nnnn2C2CCCCC2)CC1 (centres undefined) | inconclusive: 8.91 µM [fluorescent, side channel, full curve, poor fit] |  |
| CC(C)(C)NC(=O)C(c1ccncc1)N(Cc1cccs1)C(=O)Cn1nnc(-c2cccs2)n1 (centres undefined) | inconclusive: 12.6 µM [quencher, side channel, partial curve] |  |
| NCCCC[C@H](NC(=O)[C@H](Cc1c[nH]c2ccccc12)NC(=O)[C@H](CC(=O)O)NC(=O)[C@H](Cc1cnc[nH]1)NC(=O)[C@H](CO)NC(=O)[C@H](Cc1c[nH]c2ccccc12)NC(=O)[C@H](Cc1cnc[nH]1)NC(=O)[C@@H]1CCC(=O)N1)C(=O)N1CCC[C@H]1C(=O)NCC(N)=O |  | inactive: -4.4% |
| C/C(=N\Nc1ccc([N+](=O)[O-])cc1)c1ccc(N)cc1 | inconclusive: 7.08 µM [quencher, side channel, single point] |  |
| Cc1ccc(-n2nc3c(=O)n(CCCC(=O)NCc4ccc(C)o4)nc(C)c3c2C)cc1 | inconclusive: 7.94 µM [fluorescent, side channel, full curve, poor fit] |  |
| COc1ccc(C)cc1NC(=O)CN1CCN(C/C=C/c2ccccc2)CC1 | inconclusive: 3.98 µM [fluorescent, side channel, partial curve] |  |
| CSc1nc(Cl)cc(Nc2ccc(O)cc2)n1 | inconclusive: 20 µM [quencher, side channel, single point] |  |
| O=C1OCCN1C(=O)[C@H]1[C@H](c2ccc([N+](=O)[O-])cc2)C(c2cccc(Cl)c2)=NN1c1ccc(Br)cc1 | inconclusive: 0.891 µM [quencher, side channel, full curve] |  |
| CCOC(=O)c1c(NC(=O)COC(=O)c2ccc(O)cc2)sc(C(=O)N(C)C)c1C |  | inactive: 5.94% |
| COc1ccccc1C(=O)Nc1ccnn1C1CCN(Cc2cn(C)c3ccccc23)CC1 | inconclusive: 10 µM [inhibitor, partial curve] |  |
| CCN(Cc1ccccc1)C(=O)Cn1c(=O)n(CC(=O)NCc2ccco2)c(=O)c2sccc21 | inconclusive: 39.8 µM [inhibitor, single point] |  |
| COc1ccc(-c2nn3c(=O)c(C)nnc3s2)cc1 | inconclusive: 28.2 µM [quencher, side channel, single point] |  |
| CCN(CC)c1ccc(NC(=O)c2ccccc2)cc1S(=O)(=O)Nc1ccccc1OC | inconclusive: 3.55 µM [quencher, side channel, full curve] |  |
| CC#CCN1c2ccccc2[C@]23C[C@@H](C(=O)OC)N(S(=O)(=O)c4ccc([N+](=O)[O-])cc4)C2=NC(C(=O)OC)=C(C(=O)OC)[C@H]13 |  | inactive: -19.8% [at 11.7 µM] |
| COc1ccccc1-n1nc(C(=O)Nc2ccc3c(c2)OCO3)c2ccccc2c1=O | inconclusive: 10 µM [inhibitor, partial curve] |  |
| O=C(CCCSc1nnc(-c2cccs2)n1CC1CCCO1)c1ccccc1 (centres undefined) | inconclusive: 0.708 µM [inhibitor, full curve, poor fit] |  |
| Cc1cc(-c2ccc(/C=N/n3cnnc3)o2)c([N+](=O)[O-])cc1C | inconclusive: 8.91 µM [quencher, side channel, partial curve] |  |
| CCOC(=O)CN1N=C(/C=C/c2ccc(C(C)C)cc2)CCC1=O | inconclusive: 17.8 µM [fluorescent, side channel, partial curve] |  |
| Cc1ccc(NC(=O)/C(C#N)=C/c2ccc(C)s2)c(C)c1 | inconclusive: 31.6 µM [fluorescent, single point] |  |
| O=C(N/N=C/c1cc([N+](=O)[O-])ccc1O)C12CC3CC(CC(C3)C1)C2 | inconclusive: 3.16 µM [quencher, side channel, partial curve] |  |
| COc1ccc(-c2ccnc(-c3ccc(O)cc3)n2)cc1 | inconclusive: 35.5 µM [quencher, side channel, single point] |  |
| COc1ccc(/C=N/Nc2ccc(C(=O)O)cc2)c(OC)c1OC | inconclusive: 28.2 µM [quencher, side channel, partial curve] |  |
| CCc1ccc2oc(C(=O)NCCc3ccc(S(N)(=O)=O)cc3)cc(=O)c2c1 | inconclusive: 39.8 µM [fluorescent, side channel, single point] |  |
| CN(c1ccc(OCC(=O)Nc2nc(-c3ccccc3)cs2)cc1)S(=O)(=O)c1ccc(F)cc1 | inconclusive: 11.2 µM [inhibitor, partial curve] |  |

| Compound | Potency | FP activity change, negative = inhibition |
| --- | --- | --- |
| CCOc1ccc2[nH]c(C(=O)N/N=C/c3cccc(OC)c3OC)cc2c1 | inconclusive: 25.1 µM [quencher, side channel, single point] |  |
| O=C(CSc1nc(-c2ccccc2)c(-c2ccccc2)o1)Nc1nnc(-c2ccccc2)s1 | inconclusive: 25.1 µM [inhibitor, single point] |  |
| CCOc1ccc(NC(=S)NNC(=O)c2cc(Br)ccc2Cl)cc1 | inconclusive: 10 µM [quencher, side channel, partial curve] |  |
| O=C(Nc1ccc(-c2csc(Nc3ccccc3)n2)cc1)c1ccccc1 | inconclusive: 3.98 µM [quencher, side channel, partial curve] |  |
| COc1ccc(/C(C)=N/NC(=S)NCCc2ccccc2)c(O)c1 | inconclusive: 0.708 µM [quencher, side channel, full curve, poor fit] |  |
| O=C(COC(=O)c1cc(=O)[nH]c2ccccc12)Nc1nc(-c2ccccc2)cs1 | inconclusive: 39.8 µM [inhibitor, single point] |  |
| COc1cccc(-n2c(=O)c3sccc3n(CC(=O)NC3CCCCC3)c2=O)c1 | inconclusive: 35.5 µM [fluorescent, side channel, single point] |  |
| COc1ccc(NC(=O)Nc2ccc3c(c2)N(C)C(=O)CS3)cc1OC | inconclusive: 4.47 µM [quencher, side channel, single point] |  |
| CCc1ccccc1NC(=O)Cn1c(=O)n(-c2ccc(CC(=O)NCC3CCCO3)cc2)c(=O)c2ccccc21 (centres undefined) | inconclusive: 39.8 µM [fluorescent, side channel, single point] |  |
| CCOC(=O)c1ccc(S(=O)(=O)Nc2nc3cc(S(=O)(=O)NC4=NCCCCC4)ccc3s2)cc1 | inconclusive: 28.2 µM [quencher, side channel, single point] |  |
| COc1ccc(CNc2cc(C)nc3ccc(OC)cc23)cc1 | inconclusive: 0.631 µM [inhibitor, full curve, poor fit] |  |
| O=[N+]([O-])c1cc(-c2ccc(/C=N/c3nc4ccccn4c3-c3ccco3)o2)ccc1Cl | inconclusive: 25.1 µM [quencher, side channel, partial curve] |  |
| Cc1cc2cc(CNC(=S)Nc3ccc(OC(F)F)cc3)ccc2n1C | inconclusive: 31.6 µM [fluorescent, side channel, single point] |  |
| Cc1ccc(Cn2ncc3c(N4CCN(Cc5ccc(Cl)cc5)CC4)ncnc32)cc1 | inconclusive: 2.24 µM [fluorescent, side channel, full curve] |  |
| Cc1ccc2c(c1)C(C)(C)[C@]1(C)NC(=O)CCN21 | inconclusive: 2 µM [fluorescent, side channel, full curve] |  |
| Cc1cc(OCCN2CCC(Cc3ccccc3)CC2)ccc1[N+](=O)[O-] | inconclusive: 17.8 µM [fluorescent, side channel, partial curve] |  |
| O=C(Nc1cccc(N2CCCC2)c1)c1cccs1 | inconclusive: 15.8 µM [quencher, side channel, partial curve] |  |
| CC1CC(C)CN(S(=O)(=O)c2ccc(C(=O)N3CCN(c4ccccc4)CC3)cc2)C1 (centres undefined) | inconclusive: 2.82 µM [fluorescent, side channel, full curve, poor fit] |  |
| CSc1ccccc1NC(=O)c1noc2c1CCC2 | inconclusive: 14.1 µM [quencher, side channel, partial curve] |  |
| CSc1nc2ccccc2n1Cc1c(Cl)cccc1Cl |  | inactive: -3.07% |
| CC(C)Cc1nc(N2CCN(C(=O)c3ccco3)CC2)c(C#N)c2c1CCC2 | inconclusive: 7.94 µM [fluorescent, side channel, full curve] |  |
| CCOC(=O)c1c(NC(=O)c2ccco2)sc2c1CCCCC2 |  | inactive: -2.66% [at 11.7 µM] |
| Cc1nc(NCc2ccco2)c2c3c(sc2n1)CCC3 |  | inactive: 10.7% |
| CC1CCCCN1S(=O)(=O)c1ccc(NC(=O)c2cccs2)cc1 (centres undefined) | inconclusive: 15.8 µM [quencher, side channel, partial curve] |  |
| O=C(NCCO)c1nc(NCCO)c2ccccc2n1 |  | inactive: 0.881% |
| CCc1ccc(S(=O)(=O)Nc2cc(SCC(=O)O)c(O)c3ccccc23)cc1 | inconclusive: 25.1 µM [quencher, side channel, partial curve] |  |
| CCOc1ccc2[nH]c(C(=O)N/N=C/c3cc(OC)c(OC)c(OC)c3)cc2c1 | inconclusive: 28.2 µM [quencher, side channel, partial curve] |  |

From PubChem BioAssay AID1768 (National Center for Advancing Translational Sciences (NCATS), 2009)
